Laboratory results taken from PubChem BioAssay AID1671194 (National Center for Advancing Translational Sciences (NCATS), 2021).
Out of some 140,000 compounds screened, about 240 (0.17%) were called active. Inconclusive results, whose numbers are uncertain, are shown with a selection of clear calls. The call rests on the fitted dose curve; in most records, active means well fitted inhibition curve with a large enough effect; inconclusive means small, poorly fitted or top-dose-only effect; inactive means no such curve, though single readings can be large or run the other way. Where the call is inconclusive, the potency comes from a doubtful curve fit.

Assay: Primary qHTS assay for inhibitors of alpha-synuclein gene (SNCA) expression; further: nearly all actives have a fitted effect of over 45% in size;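 on activity change, negative = inhibition: plate controls were DMSO cells for no effect and cell-free wells for full effect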
Conditions: HEK-293 SNCA-luciferase knock-in, luminescence, 24 h; activity change, negative = inhibition: at 57.2 µM (top of the series) unless noted
Potency means the concentration at half of the fitted maximal effect; tags describe the fitted curve by direction and shape.

| SMILES | activity change, negative = inhibition | Potency |
| --- | --- | --- |
| Cc1nc(C2CC(O)C2)cc(N2CCN(c3cnn(C)c(=O)c3)CC2)n1 (stereo not drawn) | inactive: -16.7% |  |
| COc1ccc2cc(C3CN(C(=O)Cc4ccc(O)cc4)CCO3)ccc2c1 (stereo not drawn) | inactive: 122% |  |
| O=C(c1ccncc1)N1CCC2(CC1)CN(c1ccc(-c3ccccc3)cc1)C2 |  | inconclusive: 39.8 µM [inhibitor, single point] |
| Cn1ccc(C(=O)N2CCC(c3nnc4n3C(C(=O)NCc3ccc(F)cc3)CC4)CC2)n1 (stereo not drawn) |  | inconclusive: 10 µM [inhibitor, single point] |
| C[S+](=O)([O-])NC1CCN(c2nc3ncccc3o2)CC1 |  | inconclusive: 11.2 µM [inhibitor, partial curve, poor fit] |
| COCCc1noc([C@@H]2CC(F)(F)CN2C(=O)c2ccccc2F)n1 |  | inconclusive: 7.08 µM [inhibitor, single point] |
| O=C(NC1CC1)[C@@H]1C[C@H](Oc2ccccc2)CN1C(=O)CCCc1c[nH]c2ccccc12 | inactive: -17.1% |  |
| COc1ccc(CN2CC[C@H](c3nnc(-c4ccccc4F)o3)C2)cc1 | inactive: -9.82% [at 87.6 µM] |  |
| COc1ccc(OC)c(NC(=O)Cn2c(N3CCC(C)CC3)nc(C)cc2=O)c1 |  | inconclusive: 8.91 µM [inhibitor, single point] |
| O=C(NCCN1CCOCC1)c1ccc(Cl)cc1 |  | inconclusive: 3.16 µM [inhibitor, single point] |
| CCN(CC)c1ccc(NC(=O)c2cc(CN3CCCC3)on2)c(C)c1 |  | inconclusive: 31.6 µM [inhibitor, single point] |
| COC[C@@H]1CN(S(=O)(=O)c2cccc(C)c2)C[C@H]1c1ccncc1 |  | inconclusive: 8.91 µM [inhibitor, single point] |
| CCCN1CCC(N2C[C@@H](CO)[C@H](c3nc(COC)no3)C2)CC1 |  | inconclusive: 7.94 µM [inhibitor, partial curve, poor fit] |
| COc1ccc([C@H]2C[C@@H](O)[C@@H](O)[C@@H]2NS(=O)(=O)c2ccc(C(F)(F)F)cc2)cc1 | inactive: -2.26% [at 87.6 µM] |  |
| Cc1ccc(-c2nnc3ccc(NCCc4ccccn4)nn23)nc1 | inactive: -11.1% [at 87.6 µM] |  |
| COC(=O)c1ccccc1NC(=O)Cn1c(-c2ccc(F)cc2)nc(C)cc1=O | inactive: 0.113% |  |
| CCNC(=O)CCSc1nnc(-c2ccc(O)cc2)o1 |  | inconclusive: 11.2 µM [inhibitor, partial curve, poor fit] |
| O=C(c1ccc(F)cc1Cl)N1CCC(n2cc(-c3nc(-c4ccccc4)no3)nn2)C1 (stereo not drawn) |  | inconclusive: 3.55 µM [inhibitor, full curve, poor fit] |
| Cc1ccc2c(c1)C(c1ccc(F)cc1)N(C(=O)C(C)C)CC(=O)N2 (stereo not drawn) |  | inconclusive: 39.8 µM [inhibitor, single point] |
| C=CCC1(CO)CCCN(S(=O)(=O)c2ccccc2F)C1 (stereo not drawn) |  | inconclusive: 1.26 µM [inhibitor, full curve, poor fit] |
| CCOc1ccccc1C(=O)NCc1nnc2cc(-c3nc(CC)no3)ccn12 | inactive: -25.9% |  |
| COCCN1C(=O)CO[C@H]2CN(S(C)(=O)=O)C[C@H]21 |  | inconclusive: 4.47 µM [inhibitor, full curve, poor fit] |

| SMILES | activity change, negative = inhibition | Potency |
| --- | --- | --- |
| COc1ccccc1CCN1CCCC(CN(C)C(=O)C(=O)c2cccn2C)C1 (stereo not drawn) |  | inconclusive: 39.8 µM [inhibitor, single point] |
| CCC(=O)Nc1cc(C(=O)NCc2ccc(C)cc2)ccc1S(=O)(=O)c1ccc(C)cc1 |  | inconclusive: 2.82 µM [inhibitor, single point] |
| Cc1ccc(CN2C(=O)COC[C@H]2C(=O)NCc2cccc(F)c2)cc1 |  | inconclusive: 7.08 µM [inhibitor, single point] |
| O=C1NCc2ccccc2CC12CCN(Cc1ccc(Oc3ccccc3)cc1)C2 (stereo not drawn) |  | inconclusive: 39.8 µM [inhibitor, single point] |
| COc1cccc(CNC(=O)c2ccc(Cn3ccn4nc5c(c4c3=O)CCCC5)cc2)c1 | inactive: -14.7% |  |
| COc1cc2c(cc1OC)C(C[C@H]1CN(S(=O)(=O)c3ccc(C#N)cc3)CC[C@H]1CC(=O)O)=NCC2 | inactive: 14.8% |  |
| Cc1ccc(NC(=O)CSc2nnc(-c3cc4occc4n3C)n2-c2ccccc2C)cc1F |  | inconclusive: 0.355 µM [inhibitor, single point] |
| CCOC(=O)C1(Cc2ccc(F)cc2F)CCCN(C(=O)c2cccnc2SC)C1 (stereo not drawn) |  | inconclusive: 8.91 µM [inhibitor, single point] |
| COc1cc(CN2CCN(Cc3ccon3)CC2CCO)cc(OC)c1 (stereo not drawn) |  | inconclusive: 10 µM [inhibitor, partial curve, poor fit] |
| Cc1onc(-c2ccccc2)c1C(=O)N[C@@H]1C(=O)N2[C@@H](C(=O)O)C(C)(C)S[C@@H]12 | inconclusive: -33.3% [inhibitor] |  |
| COc1ccc(OC)c(CCNC(=O)C(C)n2nc(C)c3c(C)n(-c4ccc(C)cc4)nc3c2=O)c1 (stereo not drawn) |  | inconclusive: 5.01 µM [inhibitor, single point] |
| CC1(CNC(=O)c2n[nH]c3ccccc23)CCOCC1 | inactive: -7.76% |  |
| CCOC(=O)C1CCCN(C(=O)c2cc(-c3cc(Cl)cc(Cl)c3)c3nncn3n2)C1 (stereo not drawn) | inactive: -5.09% |  |
| Cc1ccc(CN2C[C@]34C=C[C@H](O3)C(C(=O)N(C)Cc3ccsc3)C4C2=O)cc1C (stereo partly drawn) | inactive: 9.08% |  |
| Cc1ccc(C(=O)N2CCC(CCC(=O)N3CCCCC3)CC2)cc1 | inactive: 43.6% |  |
| CCCCN(C)c1ncnc2c1cnn2-c1cccc(Cl)c1 |  | inconclusive: 39.8 µM [inhibitor, single point] |
| COc1ccccc1-c1cccc(C(=O)N2CCC[C@H]2C(=O)NCc2ccc(C(F)(F)F)cc2)c1 | inactive: 4.21% |  |
| Cc1cc(C)cc(NC(=O)Cn2nnc(C(=O)NCc3ccco3)c2N)c1 |  | inconclusive: 22.4 µM [inhibitor, partial curve, poor fit] |
| CC(C)C(=O)N1Cc2ccccc2CC2(CCN(Cc3ccc(O)cc3)CC2)C1 |  | inconclusive: 5.62 µM [inhibitor, partial curve] |
| CCOC(=O)C1CC1CN1CCCC12Cc1ccccc1CNC2=O (stereo not drawn) |  | inconclusive: 11.2 µM [inhibitor, single point] |
| COc1ccc(-c2nc(C3CC(=O)N(c4ccc(F)c(Cl)c4)C3)no2)c(C)c1 (stereo not drawn) |  | inconclusive: 5.01 µM [inhibitor, single point] |
